Experimental data published in the supplement of paper PMC12217912.
The other results are listed elsewhere or left out. Sequences were assembled here from the parent chain. Inactive controls read about 0.05.

B1: TEV protease; numbered along this chain (parent)
chain: MGESLFKGPRDYNPISSSICHLTNESDGHTTSLYGIGFGPFIITNKHLFRRNNGTLVVQSLHGVFKVKDTTTLQQHLVDGRDMIIIRMPKDFPPFPQKLKFREPQREERICLVTTNFQTKSMSSMVSDTSCTFPSGDGIFWKHWIQTKDGQCGSPLVSTRDGFIVGIHSASNFTNTNNYFTSVPKNFMELLTNQEAQQWVSGWRLNADSVLWGGHKVFMVKPEEPFQPVKEATQL

Variants of: B1
Experiment: raw area under fraction-flipped curve 0-4 h after induction (AUC4h, not background-subtracted), DNA-recorder readout of cleavage of the substrate (dimensionless); higher = more cleavage of the substrate by the protease variant
Settings: temperature: 34 °C; time window: 0-4 h after rhamnose induction
Procedure: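 In vivo DNA recorder in E. coli TOP10(DE3) ΔrhaA at 34 °C. Each TEVp single-site mutant (parent TEVp 0) is paired with a single-site variant of the 7-mer TEVs (canonical ENLYFQ|S). The substrate sits between flexible linkers in a Bxb1-sfGFP-TEVs-SsrA fusion, so cleavage stabilises Bxb1 and speeds flipping of a recombination array, read by NGS. The value is the raw area under the fraction-flipped curve over 0-4 h after rhamnose induction (AUC4h), with ≥20 reads per time point. It is not background-subtracted; inactive controls average about 0.047.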
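Further: Bxb1 expression induced with 0.2% (w/v) L-rhamnose at OD600 near 0.5, cultures sampled hourly, flipped fraction per protease–substrate barcode pair counted by paired-end Illumina sequencing.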

Variant | area with substrate ENLAFQS | area with substrate ENLCFQS | area with substrate ENLHFQS | area with substrate ENLKFQS | area with substrate ENLLFQS | area with substrate ENLNFQS | area with substrate ENLPFQS | area with substrate ENLRFQS | area with substrate ENLSFQS | area with substrate ENLVFQS | area with substrate ENLDFQS | area with substrate ENLEFQS | area with substrate ENLFFQS | area with substrate ENLIFQS | area with substrate ENLGFQS | area with substrate ENLMFQS | area with substrate ENLQFQS | area with substrate ENLTFQS | area with substrate ENLWFQS
C152Y | 0.0635 | 0.0523 | 0.0592 | 0.0677 | 0.0364 | 0.061 | 0.0368 | 0.0622 | 0.0546 | 0.0742 |  |  |  |  |  |  |  |  | 
G153V | 0.0432 |  | 0.0448 | 0.0603 |  | 0.048 |  |  | 0.0744 | 0.0391 | 0.051 | 0.0484 | 0.054 | 0.0602 |  |  |  |  | 
L156N | 0.0507 | 0.0398 | 0.0595 | 0.0461 |  | 0.056 | 0.046 | 0.0474 | 0.0546 | 0.0579 | 0.0916 | 0.053 | 0.0509 | 0.0499 | 0.0394 | 0.0542 | 0.0691 | 0.0583 | 0.0448
R160C | 0.0869 |  | 0.0634 | 0.0605 | 0.0773 | 0.0666 | 0.0629 |  | 0.0711 | 0.0831 |  | 0.0687 | 0.084 |  |  |  | 0.0542 |  | 0.0657
R160E | 0.099 | 0.0866 | 0.0753 | 0.0768 | 0.0738 | 0.0765 |  | 0.0802 | 0.0722 |  | 0.0604 | 0.0588 | 0.0864 | 0.0698 | 0.0743 |  |  |  | 0.0608
R160G | 0.07 | 0.0684 | 0.042 | 0.0841 |  | 0.0636 | 0.0687 | 0.0593 | 0.0798 |  | 0.0623 | 0.0557 | 0.0811 | 0.0717 | 0.0051 |  | 0.0692 |  | 0.0787
V165C | 0.0503 |  |  |  | 0.0646 | 0.0567 | 0.0591 | 0.061 | 0.0647 | 0.0552 | 0.0602 | 0.066 |  |  |  | 0.0606 | 0.0797 | 0.0604 | 0.0852
G166C | 0.0396 |  | 0.0562 | 0.0534 | 0.055 | 0.0577 |  | 0.0566 | 0.0616 |  | 0.0615 |  | 0.0561 |  |  |  | 0.0555 |  | 
I167D | 0.0725 | 0.0424 | 0.0583 | 0.0631 | 0.066 | 0.0711 | 0.0552 | 0.0574 | 0.0622 |  | 0.0733 | 0.0599 | 0.0496 | 0.0557 |  |  |  | 0.0595 | 0.0413
I167E | 0.0495 |  | 0.0478 | 0.0403 |  | 0.0468 | 0.0582 |  | 0.0632 |  | 0.0666 |  |  | 0.042 |  |  |  |  | 
H168R | 0.059 |  | 0.0576 | 0.0656 |  | 0.051 | 0.046 | 0.042 | 0.0664 | 0.0669 | 0.0845 |  | 0.055 | 0.0522 |  | 0.0579 |  |  | 0.0627
H168S | 0.0734 |  | 0.0678 | 0.0564 | 0.0484 | 0.0486 | 0.0592 |  |  |  | 0.0814 |  | 0.0677 | 0.0595 |  | 0.0608 | 0.0677 | 0.059 | 0.0527
H168T | 0.0743 |  |  | 0.0594 |  | 0.0591 | 0.0627 |  | 0.0485 |  | 0.0865 |  | 0.0498 |  |  |  | 0.0526 | 0.0944 | 0.0469
H168V | 0.0646 |  | 0.0517 | 0.07 | 0.0586 | 0.0543 | 0.0555 | 0.105 | 0.0661 |  | 0.0646 | 0.0669 | 0.0593 |  | 0.0699 |  | 0.0527 |  | 0.046
N172C | 0.0628 |  | 0.0586 |  |  | 0.0758 |  |  | 0.0399 |  |  |  | 0.0719 |  |  |  |  |  | 
T174A | 0.0674 |  |  | 0.0654 | 0.0768 | 0.0622 | 0.0773 |  |  |  |  | 0.0788 | 0.0958 |  |  |  |  |  | 
T174Y | 0.0869 | 0.0721 | 0.055 | 0.0726 |  | 0.0658 |  | 0.0692 | 0.0583 |  | 0.0762 | 0.067 |  |  | 0.078 |  |  |  | 
T176G | 0.0689 | 0.0717 |  | 0.0593 | 0.056 | 0.0644 |  | 0.0485 |  |  | 0.0702 | 0.0484 | 0.0643 | 0.0634 | 0.0684 |  |  |  | 
T176H | 0.0648 | 0.056 | 0.0664 | 0.0812 | 0.0446 |  | 0.041 | 0.0734 |  |  | 0.0681 |  | 0.0626 | 0.0595 |  |  |  |  | 
V183K | 0.0563 | 0.0537 | 0.0538 | 0.0364 | 0.0558 | 0.0586 | 0.0539 | 0.0525 |  | 0.05 | 0.0638 |  | 0.0564 | 0.0545 |  |  | 0.0452 | 0.0515 | 0.0651
P184A | 0.0619 | 0.0673 | 0.0625 | 0.0702 | 0.0571 | 0.0649 | 0.0639 |  |  | 0.0643 | 0.0671 | 0.0519 | 0.0753 | 0.0696 |  |  |  |  | 0.0612
P184E | 0.0543 |  |  | 0.0905 |  | 0.0547 | 0.0513 |  | 0.0424 |  | 0.0628 | 0.0567 | 0.06 | 0.0671 |  |  |  |  | 0.0687
P184Q | 0.0511 |  | 0.0622 | 0.0551 | 0.0588 | 0.0588 | 0.0596 |  | 0.057 |  | 0.0584 | 0.0691 | 0.0557 |  | 0.0713 | 0.0497 | 0.0667 | 0.0363 | 0.0542
L191C | 0.0594 | 0.0495 | 0.0667 | 0.11 | 0.064 | 0.0745 | 0.0666 | 0.0594 | 0.0151 |  | 0.06 | 0.0798 | 0.0787 |  |  |  | 0.0706 |  | 0.11
T192K | 0.0744 | 0.0804 | 0.0719 | 0.0717 | 0.0971 | 0.0588 |  | 0.0713 | 0.0514 | 0.085 | 0.0572 | 0.0726 | 0.0913 | 0.0757 |  |  |  | 0.0834 | 
T192L | 0.0638 |  | 0.0685 | 0.068 | 0.0642 | 0.0824 | 0.0561 |  | 0.0447 |  | 0.083 | 0.0479 | 0.083 |  | 0.0536 | 0.0823 | 0.0546 |  | 
T192N | 0.076 | 0.0658 | 0.0448 | 0.0835 | 0.0738 | 0.0734 | 0.0503 |  | 0.0583 |  | 0.0487 | 0.0782 | 0.0299 | 0.0955 | 0.0703 | 0.0757 | 0.0771 |  | 0.0616
Q194G | 0.0616 |  | 0.072 | 0.0778 |  | 0.0681 | 0.0651 | 0.0666 |  | 0.101 | 0.0664 | 0.0652 | 0.0799 | 0.0863 | 0.0874 |  |  |  | 
